Test results: the supplement of paper PMC8728848
Some of the results follow.

Columns and labels:
Assay in all cases: glycan array binding signal (z-score within array); higher = stronger binding
Settings in all cases: glycan notation: IUPAC condensed, linker removed; mutation: R186S
[1] = molecular target: Fuc(a1-3)[Gal3S(b1-4)]GlcNAc
Procedure, shortened: (§1)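 From the Consortium for Functional Glycomics database, 3228 arrays were curated, keeping only those whose protein sequence was available. Binding is given as a within-array Z-score averaged across arrays sharing a protein sequence and across linkers. Negative Z-scores can be read as non-binding.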

[2] = molecular target: Fuc(a1-3)[Gal3S(b1-4)]GlcNAc6S
Procedure, shortened: as §1

[3] = molecular target: Fuc(a1-3)[GalNAc(b1-4)]GlcNAc
Procedure, shortened: as §1

Fuc(a1-4)GlcNAc = molecular target: Fuc(a1-4)GlcNAc
Procedure, shortened: as §1

Fuc(b1-3)GlcNAc = molecular target: Fuc(b1-3)GlcNAc
Procedure, shortened: as §1

Gal(a1-2)Gal = molecular target: Gal(a1-2)Gal
Procedure, shortened: as §1

Gal(a1-3)Gal = molecular target: Gal(a1-3)Gal
Procedure, shortened: as §1

Gal(a1-3)Gal(b1-3)GlcNAc = molecular target: Gal(a1-3)Gal(b1-3)GlcNAc
Procedure, shortened: as §1

[4] = molecular target: Gal(a1-3)Gal(b1-3)GlcNAc(b1-2)Man(a1-3)[Gal(a1-3)Gal(b1-3)GlcNAc(b1-2)Man(a1-6)]Man(b1-4)GlcNAc(b1-4)GlcNAc
Procedure, shortened: as §1

[5] = molecular target: Gal(a1-3)Gal(b1-3)[Fuc(a1-4)]GlcNAc(b1-2)Man(a1-3)[Gal(a1-3)Gal(b1-3)[Fuc(a1-4)]GlcNAc(b1-2)Man(a1-6)]Man(b1-4)GlcNAc(b1-4)GlcNAc
Procedure, shortened: as §1

Gal(a1-3)Gal(b1-4)Glc = molecular target: Gal(a1-3)Gal(b1-4)Glc
Procedure, shortened: as §1

Gal(a1-3)Gal(b1-4)GlcNAc = molecular target: Gal(a1-3)Gal(b1-4)GlcNAc
Procedure, shortened: as §1

[6] = molecular target: Gal(a1-3)Gal(b1-4)GlcNAc(b1-3)GalNAc
Procedure, shortened: as §1

[7] = molecular target: Gal(a1-3)Gal(b1-4)[Fuc(a1-3)]GlcNAc
Procedure, shortened: as §1

[8] = molecular target: Gal(a1-3)Gal(b1-4)[Fuc(a1-3)]GlcNAc(b1-2)Man(a1-3)[Gal(a1-3)Gal(b1-4)[Fuc(a1-3)]GlcNAc(b1-2)Man(a1-6)]Man(b1-4)GlcNAc(b1-4)GlcNAc
Procedure, shortened: as §1

Gal(a1-3)GalNAc = molecular target: Gal(a1-3)GalNAc
Procedure, shortened: as §1

[9] = molecular target: Gal(a1-3)[Gal(a1-4)]Gal(b1-4)GlcNAc
Procedure, shortened: as §1

[10] = molecular target: Gal(a1-4)Gal(b1-3)GlcNAc(b1-2)Man(a1-3)[Gal(a1-4)Gal(b1-3)GlcNAc(b1-2)Man(a1-6)]Man(b1-4)GlcNAc(b1-4)GlcNAc
Procedure, shortened: as §1

Gal(a1-4)Gal(b1-4)Glc = molecular target: Gal(a1-4)Gal(b1-4)Glc
Procedure, shortened: as §1

Gal(a1-4)Gal(b1-4)GlcNAc = molecular target: Gal(a1-4)Gal(b1-4)GlcNAc
Procedure, shortened: as §1

[11] = molecular target: Gal(a1-4)Gal(b1-4)GlcNAc(b1-2)Man(a1-3)[Gal(a1-4)Gal(b1-4)GlcNAc(b1-2)Man(a1-6)]Man(b1-4)GlcNAc(b1-4)GlcNAc
Procedure, shortened: as §1

[12] = molecular target: Gal(a1-4)Gal(b1-4)GlcNAc(b1-3)Gal(b1-4)Glc
Procedure, shortened: as §1

Gal(a1-4)GlcNAc = molecular target: Gal(a1-4)GlcNAc
Procedure, shortened: as §1

Gal(a1-6)Glc = molecular target: Gal(a1-6)Glc
Procedure, shortened: as §1

Gal(b1-2)Gal = molecular target: Gal(b1-2)Gal
Procedure, shortened: as §1

Gal(b1-3)Gal = molecular target: Gal(b1-3)Gal
Procedure, shortened: as §1

Gal(b1-3)Gal(b1-4)GlcNAc = molecular target: Gal(b1-3)Gal(b1-4)GlcNAc
Procedure, shortened: as §1

[13] = molecular target: Gal(b1-3)Gal(b1-4)GlcNAc(b1-2)Man(a1-3)[Gal(b1-3)Gal(b1-4)GlcNAc(b1-2)Man(a1-6)]Man(b1-4)GlcNAc(b1-4)GlcNAc
Procedure, shortened: as §1

Gal(b1-3)GalNAc = molecular target: Gal(b1-3)GalNAc
Procedure, shortened: as §1

[14] = molecular target: Gal(b1-3)GalNAc(a1-3)[Fuc(a1-2)]Gal(b1-4)Glc
Procedure, shortened: as §1

[15] = molecular target: Gal(b1-3)GalNAc(a1-3)[Fuc(a1-2)]Gal(b1-4)GlcNAc
Procedure, shortened: as §1

[16] = molecular target: Gal(b1-3)GalNAc(b1-3)Gal(a1-4)Gal(b1-4)Glc
Procedure, shortened: as §1

[17] = molecular target: Gal(b1-3)GalNAc(b1-4)Gal(b1-4)Glc
Procedure, shortened: as §1

[18] = molecular target: Gal(b1-3)GalNAc(b1-4)[Neu5Ac(a2-3)]Gal(b1-4)Glc
Procedure, shortened: as §1

Gal(b1-3)GlcNAc = molecular target: Gal(b1-3)GlcNAc
Procedure, shortened: as §1

[19] = molecular target: Gal(b1-3)GlcNAc(a1-6)Gal(b1-4)GlcNAc
Procedure, shortened: as §1

[20] = molecular target: Gal(b1-3)GlcNAc(b1-2)Man(a1-3)[Gal(b1-3)GlcNAc(b1-2)Man(a1-6)]Man(b1-4)GlcNAc(b1-4)GlcNAc
Procedure, shortened: as §1

[21] = molecular target: Gal(b1-3)GlcNAc(b1-2)Man(a1-3)[Gal(b1-3)GlcNAc(b1-2)Man(a1-6)]Man(b1-4)GlcNAc(b1-4)[Fuc(a1-6)]GlcNAc
Procedure, shortened: as §1

[22] = molecular target: Gal(b1-3)GlcNAc(b1-3)Gal(b1-3)GlcNAc
Procedure, shortened: as §1

[23] = molecular target: Gal(b1-3)GlcNAc(b1-3)Gal(b1-4)Glc
Procedure, shortened: as §1

[24] = molecular target: Gal(b1-3)GlcNAc(b1-3)Gal(b1-4)GlcNAc
Procedure, shortened: as §1

[25] = molecular target: Gal(b1-3)GlcNAc(b1-3)Gal(b1-4)GlcNAc(b1-6)[Gal(b1-3)GlcNAc(b1-3)]Gal(b1-4)Glc
Procedure, shortened: as §1

[26] = molecular target: Gal(b1-3)GlcNAc(b1-3)Gal(b1-4)[Fuc(a1-3)]GlcNAc(b1-6)[Gal(b1-3)GlcNAc(b1-3)]Gal(b1-4)Glc
Procedure, shortened: as §1

[27] = molecular target: Gal(b1-3)GlcNAc(b1-3)GalNAc
Procedure, shortened: as §1

[28] = molecular target: Gal(b1-3)GlcNAc(b1-6)Gal(b1-4)GlcNAc
Procedure, shortened: as §1

[29] = molecular target: Gal(b1-3)[Fuc(a1-4)]GlcNAc
Procedure, shortened: as §1

[30] = molecular target: Gal(b1-3)[Fuc(a1-4)]GlcNAc(b1-2)Man(a1-3)[Gal(b1-3)[Fuc(a1-4)]GlcNAc(b1-2)Man(a1-6)]Man(b1-4)GlcNAc(b1-4)GlcNAc
Procedure, shortened: as §1

[31] = molecular target: Gal(b1-3)[Fuc(a1-4)]GlcNAc(b1-2)Man(a1-3)[Gal(b1-3)[Fuc(a1-4)]GlcNAc(b1-2)Man(a1-6)]Man(b1-4)GlcNAc(b1-4)[Fuc(a1-6)]GlcNAc
Procedure, shortened: as §1

[32] = molecular target: Gal(b1-3)[Fuc(a1-4)]GlcNAc(b1-3)Gal(b1-3)[Fuc(a1-4)]GlcNAc
Procedure, shortened: as §1

[33] = molecular target: Gal(b1-3)[Fuc(a1-4)]GlcNAc(b1-3)Gal(b1-4)GlcNAc
Procedure, shortened: as §1

[34] = molecular target: Gal(b1-3)[Fuc(a1-4)]GlcNAc(b1-3)Gal(b1-4)[Fuc(a1-3)]GlcNAc
Procedure, shortened: as §1

[35] = molecular target: Gal(b1-3)[GlcNAc(b1-6)]GalNAc
Procedure, shortened: as §1

[36] = molecular target: Gal(b1-3)[Neu5Ac(a2-6)]GalNAc
Procedure, shortened: as §1

[37] = molecular target: Gal(b1-3)[Neu5Ac(a2-6)]GlcNAc(b1-6)Gal(b1-4)Glc
Procedure, shortened: as §1

[38] = molecular target: Gal(b1-3)[Neu5Ac(b2-6)]GalNAc
Procedure, shortened: as §1

[39] = molecular target: Gal(b1-4)GalNAc(a1-3)[Fuc(a1-2)]Gal(b1-4)GlcNAc
Procedure, shortened: as §1

[40] = molecular target: Gal(b1-4)GalNAc(b1-3)[Fuc(a1-2)]Gal(b1-4)GlcNAc
Procedure, shortened: as §1

Gal(b1-4)Glc = molecular target: Gal(b1-4)Glc
Procedure, shortened: as §1

Gal(b1-4)Glc6S = molecular target: Gal(b1-4)Glc6S
Procedure, shortened: as §1

Gal(b1-4)GlcNAc = molecular target: Gal(b1-4)GlcNAc
Procedure, shortened: as §1

B1: Gal 3 (Homo sapiens), P17931 (protein)
chain: MADNFSLHDALSGSGNPNPQGWPGAWGNQPAGAGGYPGASYPGAYPGQAPPGAYPGQAPPGAYHGAPGAYPGAPAPGVYPGPPSGPGAYPSSGQPSAPGAYPATGPYGAPAGPLIVPYNLPLPGGVVPRMLITILGTVKPNANILDFQRGNDVAFHFNPRFNENNRRVIVCNTKLDNNWGREESQSVFPFESGKPFKIQVLVEPDHFKVAVNDAHLLQYNHRVKKLNEISKLGISGDIDLTSASYTMI
- glycan array binding signal (z-score) [1]: -0.039
- glycan array binding signal (z-score) [2]: -0.063
- glycan array binding signal (z-score) [3]: -0.042
- glycan array binding signal (z-score) (Fuc(a1-4)GlcNAc): -0.066
- glycan array binding signal (z-score) (Fuc(b1-3)GlcNAc): -0.041
- glycan array binding signal (z-score) (Gal(a1-2)Gal): -0.055
- glycan array binding signal (z-score) (Gal(a1-3)Gal): -0.009
- glycan array binding signal (z-score) (Gal(a1-3)Gal(b1-3)GlcNAc): -0.064
- glycan array binding signal (z-score) [4]: -0.025
- glycan array binding signal (z-score) [5]: -0.091
- glycan array binding signal (z-score) (Gal(a1-3)Gal(b1-4)Glc): -0.045
- glycan array binding signal (z-score) (Gal(a1-3)Gal(b1-4)GlcNAc): -0.08
- glycan array binding signal (z-score) [6]: -0.053
- glycan array binding signal (z-score) [7]: -0.082
- glycan array binding signal (z-score) [8]: -0.061
- glycan array binding signal (z-score) (Gal(a1-3)GalNAc): -0.061
- glycan array binding signal (z-score) [9]: -0.044
- glycan array binding signal (z-score) [10]: -0.022
- glycan array binding signal (z-score) (Gal(a1-4)Gal(b1-4)Glc): -0.059
- glycan array binding signal (z-score) (Gal(a1-4)Gal(b1-4)GlcNAc): -0.071
- glycan array binding signal (z-score) [11]: -0.085
- glycan array binding signal (z-score) [12]: -0.045
- glycan array binding signal (z-score) (Gal(a1-4)GlcNAc): -0.058
- glycan array binding signal (z-score) (Gal(a1-6)Glc): -0.075
- glycan array binding signal (z-score) (Gal(b1-2)Gal): -0.067
- glycan array binding signal (z-score) (Gal(b1-3)Gal): -0.057
- glycan array binding signal (z-score) (Gal(b1-3)Gal(b1-4)GlcNAc): -0.075
- glycan array binding signal (z-score) [13]: -0.045
- glycan array binding signal (z-score) (Gal(b1-3)GalNAc): -0.066
- glycan array binding signal (z-score) [14]: -0.084
- glycan array binding signal (z-score) [15]: -0.079
- glycan array binding signal (z-score) [16]: -0.068
- glycan array binding signal (z-score) [17]: -0.035
- glycan array binding signal (z-score) [18]: -0.03
- glycan array binding signal (z-score) (Gal(b1-3)GlcNAc): -0.054
- glycan array binding signal (z-score) [19]: -0.07
- glycan array binding signal (z-score) [20]: -0.084
- glycan array binding signal (z-score) [21]: -0.088
- glycan array binding signal (z-score) [22]: -0.026
- glycan array binding signal (z-score) [23]: -0.038
- glycan array binding signal (z-score) [24]: -0.05
- glycan array binding signal (z-score) [25]: -0.043
- glycan array binding signal (z-score) [26]: -0.042
- glycan array binding signal (z-score) [27]: -0.079
- glycan array binding signal (z-score) [28]: -0.089
- glycan array binding signal (z-score) [29]: -0.037
- glycan array binding signal (z-score) [30]: 0.028
- glycan array binding signal (z-score) [31]: -0.048
- glycan array binding signal (z-score) [32]: -0.053
- glycan array binding signal (z-score) [33]: -0.03
- glycan array binding signal (z-score) [34]: -0.051
- glycan array binding signal (z-score) [35]: -0.058
- glycan array binding signal (z-score) [36]: -0.068
- glycan array binding signal (z-score) [37]: -0.056
- glycan array binding signal (z-score) [38]: -0.07
- glycan array binding signal (z-score) [39]: -0.059
- glycan array binding signal (z-score) [40]: -0.047
- glycan array binding signal (z-score) (Gal(b1-4)Glc): -0.029
- glycan array binding signal (z-score) (Gal(b1-4)Glc6S): -0.05
- glycan array binding signal (z-score) (Gal(b1-4)GlcNAc): -0.05
